Test results taken from the supplement of paper PMC10886265.

Assays:
Assay in all cases: Broth microdilution (CLSI), cation-adjusted Mueller-Hinton broth, two-fold steps from 0.25 to 128 µg/mL, 18 h at 37 °C.
Ertapenem = compound: C[C@@H](O)[C@H]1C(=O)N2C(C(=O)O)=C(S[C@@H]3CN[C@H](C(=O)Nc4cccc(C(=O)O)c4)C3)[C@H](C)[C@H]12 [Ertapenem]
Imipenem = compound: C[C@@H](O)[C@H]1C(=O)N2C(C(=O)O)=C(SCCNC=N)C[C@H]12 [Imipenem]
Meropenem = compound: C[C@@H](O)[C@H]1C(=O)N2C(C(=O)O)=C(S[C@@H]3CN[C@H](C(=O)N(C)C)C3)[C@H](C)[C@H]12 [Meropenem]

| Test System | MIC (Ertapenem) [µg/mL] | MIC (Imipenem) [µg/mL] | MIC (Meropenem) [µg/mL] |
| --- | --- | --- | --- |
| Enterobacter cloacae isolate primary sludge #74 (carbapenemase genes (PCR): KPC) | 16 | 32 | 64 |
| Klebsiella pneumoniae isolate sewage #2 (carbapenemase genes (PCR): OXA-48) | 4 | 8 | 32 |
| Enterobacter cloacae isolate secondary sludge #77 (carbapenemase genes (PCR): KPC) | 8 | 16 | 64 |
| Enterobacter bugandensis isolate sewage #88 (carbapenemase genes (PCR): KPC) | 64 | 32 | 64 |
| Enterobacter bugandensis isolate sewage #83 (carbapenemase genes (PCR): KPC) | 8 | 16 | 32 |
| Pseudomonas aeruginosa isolate secondary sludge #213 (carbapenemase genes (PCR): VIM) | 8 | 32 | 64 |
| Klebsiella oxytoca isolate secondary sludge #169 (carbapenemase genes (PCR): KPC) | 8 | 32 | 64 |
| Enterobacter kobei isolate sewage #137 (carbapenemase genes (PCR): KPC) | 8 | 32 | 64 |
| Stenotrophomonas maltophilia isolate primary sludge #176 (carbapenemase genes (PCR): ND) | 32 | 64 | 64 |
| Kluyvera ascorbata isolate primary sludge #45 (carbapenemase genes (PCR): KPC) | 64 | 128 | 128 |
| Klebsiella pneumoniae isolate secondary sludge #215 (carbapenemase genes (PCR): KPC) | 8 | 32 | 64 |
| Enterobacter bugandensis isolate sewage #22 (carbapenemase genes (PCR): KPC) | 64 | 128 | 128 |
| Kluyvera georgiana isolate primary sludge #51 (carbapenemase genes (PCR): KPC) | 64 | 128 | 128 |
| Enterobacter bugandensis isolate primary sludge #42 (carbapenemase genes (PCR): KPC+GES) | 64 | 128 | 128 |
| Klebsiella pneumoniae isolate sewage #136 (carbapenemase genes (PCR): KPC) | 16 | 32 | 64 |
| Klebsiella pneumoniae isolate sewage #205 (carbapenemase genes (PCR): KPC+GES) | 32 | 16 | 16 |
| Klebsiella oxytoca isolate primary sludge #152 (carbapenemase genes (PCR): KPC) | 4 | 8 | 16 |
| Klebsiella oxytoca isolate primary sludge #211 (carbapenemase genes (PCR): KPC) | 32 | 32 | 64 |
| Klebsiella variicola isolate primary sludge #180 (carbapenemase genes (PCR): KPC) | 16 | 64 | 64 |
| Enterobacter kobei isolate sewage #17 (carbapenemase genes (PCR): KPC) | 4 | 32 | 64 |
| Klebsiella pneumoniae isolate sewage #64 (carbapenemase genes (PCR): OXA-48) | 64 | 128 | 128 |
| Pseudomonas aeruginosa isolate primary sludge #253 (carbapenemase genes (PCR): VIM) | 8 | 32 | 64 |
| Klebsiella variicola isolate primary sludge #79 (carbapenemase genes (PCR): GES) | 16 | 64 | 64 |
| Enterobacter cloacae isolate primary sludge #70 (carbapenemase genes (PCR): KPC) | 16 | 16 | 64 |
| Citrobacter freundii isolate sewage #207 (carbapenemase genes (PCR): KPC) | 64 | 64 | 64 |

| Test System | MIC (Ertapenem) [µg/mL] | MIC (Imipenem) [µg/mL] | MIC (Meropenem) [µg/mL] |
| --- | --- | --- | --- |
| Klebsiella pneumoniae isolate secondary sludge #4 (carbapenemase genes (PCR): OXA-48) | 64 | 128 | 128 |
| Klebsiella pneumoniae isolate sewage #8 (carbapenemase genes (PCR): OXA-48) | 4 | 16 | 32 |
| Enterobacter cloacae isolate primary sludge #192 (carbapenemase genes (PCR): KPC) | 8 | 16 | 64 |
| Klebsiella pneumoniae isolate primary sludge #160 (carbapenemase genes (PCR): KPC) | 32 | 16 | 64 |
| Klebsiella oxytoca isolate primary sludge #212 (carbapenemase genes (PCR): KPC) | 32 | 32 | 64 |
| Pseudomonas putida isolate sewage #105 (carbapenemase genes (PCR): IMP) | 64 | 16 | 64 |
| Pseudomonas monteilii isolate secondary sludge #39 (carbapenemase genes (PCR): IMP) | 64 | 32 | 128 |
| Klebsiella oxytoca isolate primary sludge #159 (carbapenemase genes (PCR): KPC) | 32 | 16 | 64 |
| Kluyvera ascorbata isolate secondary sludge #55 (carbapenemase genes (PCR): KPC) | 64 | 128 | > 128 |
| Klebsiella pneumoniae isolate primary sludge #203 (carbapenemase genes (PCR): KPC) | 32 | 64 | 32 |
| Enterobacter cloacae isolate primary sludge #67 (carbapenemase genes (PCR): KPC) | 16 | 16 | 64 |
| Klebsiella pneumoniae isolate primary sludge #257 (carbapenemase genes (PCR): KPC) | 8 | 32 | 64 |
| Pseudomonas koreensis isolate sewage #7 (carbapenemase genes (PCR): IMP) | 4 | 8 | 16 |
| Enterobacter cloacae isolate secondary sludge #15 (carbapenemase genes (PCR): KPC+GES) | 32 | 16 | 32 |
| Enterobacter asburiae isolate sewage #13 (carbapenemase genes (PCR): KPC) | 4 | 16 | 32 |
| Klebsiella variicola isolate primary sludge #92 (carbapenemase genes (PCR): GES) | 32 | 32 | 32 |
| Klebsiella pneumoniae isolate primary sludge #202 (carbapenemase genes (PCR): KPC) | 32 | 32 | 32 |
| Stenotrophomonas maltophilia isolate secondary sludge #159 (carbapenemase genes (PCR): ND) | 32 | 64 | 32 |
| Acinetobacter baumannii isolate primary sludge #22 (carbapenemase genes (PCR): ND) | 64 | 64 | 32 |
| Klebsiella pneumoniae isolate sewage #129 (carbapenemase genes (PCR): KPC) | 64 | 64 | > 128 |
| Enterobacter asburiae isolate primary sludge #90 (carbapenemase genes (PCR): KPC) | 8 | 16 | 64 |
| Klebsiella variicola isolate secondary sludge #175 (carbapenemase genes (PCR): KPC+GES) | 8 | 32 | 64 |
| Klebsiella pneumoniae isolate primary sludge #224 (carbapenemase genes (PCR): KPC) | 32 | 64 | 128 |
| Klebsiella pneumoniae isolate sewage #135 (carbapenemase genes (PCR): KPC) | 8 | 32 | 32 |
| Pseudomonas putida isolate sewage #14 (carbapenemase genes (PCR): ND) | 8 | 16 | 64 |

MIC by broth microdilution (CLSI, 0.25-128 µg/mL, 18 h, 37 °C) of Gram-negative wastewater isolates picked on carbapenem-selective plates; higher = less susceptible. No active / inactive call. Isolates were selected for resistance.
